The whole screen tested about 420,000 compounds, of which about 64,000 (15%) were called active. Inconclusive results, whose numbers are uncertain, are shown with a selection of clear calls. Calls come from the whole dose curve; as a rule, active = well fitted inhibition curve with a large enough effect; inconclusive = small, poorly fitted or top-dose-only effect; inactive = flat fitted curve, though single readings scatter. No potency is given beside an inconclusive call; the fits are too rough.
Assay: qHTS for Inhibitors of human tyrosyl-DNA phosphodiesterase 1 (TDP1): qHTS in cells in absence of CPT; note: nearly all actives have a fitted effect of over 55% in size
Conditions: DT40 Tdp1-/- hTDP1 cells, no CPT, ATP luminescence, 48 h; activity change, negative = growth inhibition: at 46.2 µM (top of the series) unless noted
Summary of the method: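 Chicken DT40 Tdp1-/- cells complemented with human TDP1, screened without camptothecin (DMSO vehicle only), 400 cells/well. Compounds pin-transferred, cells incubated at 37 °C for at least 48 hr. Growth read as ATP-dependent luminescence (CellTiter-Glo, 30 min at RT).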
% is set by controls: 0 for no effect and ±100 for the full control effect; potency is the fitted concentration of half-maximal effect; tags give direction and shape of the fitted curve.

Row | SMILES | Potency | activity change, negative = growth inhibition
1 | COc1ccc(CN2CCN(C(=O)C3CC(=O)N(C4CCCCCC4)C3)CC2)c(OC)c1OC (stereo not given) | inconclusive [inhibitor, partial curve, poor fit] | 
2 | Cc1ccccc1Nc1nc(-c2cccc(Cl)c2)c2c(n1)-c1ccccc1OC2 | inconclusive [inhibitor, partial curve] | 
3 | COc1ccc(NC(=O)CCCCn2c(=O)[nH]c3ccccc3c2=O)cc1 |  | inactive: -16.4%
4 | CC(NC(=O)Cn1c(=O)oc2cc(S(=O)(=O)NCc3ccccc3)ccc21)c1ccccc1 (stereo not given) | inconclusive [inhibitor, partial curve] | 
5 | COCC(C)n1c(SCC(=O)Nc2c(C)n(C)n(-c3ccccc3)c2=O)nc2ccccc2c1=O (stereo not given) |  | inactive: -6.4%
6 | COc1ccc(NC(=O)CSc2nnc(NC(=O)Nc3ccccc3)s2)cc1OC |  | inactive: 9.67%
7 | COc1ccc2c(CCNC(=O)c3ccc([N+](=O)[O-])cc3)c[nH]c2c1 | inconclusive [inhibitor, partial curve, poor fit] | 
8 | CC(=O)n1c(-c2ccccc2)c(-c2ccccc2)n(C)c1=O | inconclusive [inhibitor, single point] | 
9 | COc1cc(NC(=S)N2CCN(C(c3ccccc3)c3ccccc3)CC2)cc(OC)c1 |  | inactive: -28.1%
10 | CN(C)S(=O)(=O)c1ccc(C(=O)Nc2nnc(-c3ccco3)o2)cc1 | inconclusive [inhibitor, single point] | 
11 | COc1ccc(C2(O)C(=O)Nc3ccc(C)cc32)cc1 (stereo not given) |  | inactive: 4.1%
12 | C/C(=N\Nc1ccccn1)c1ccc(S(=O)(=O)NCc2ccco2)cc1 | inconclusive [inhibitor, partial curve] | 
13 | CC(C)(C)c1ccc(S(=O)(=O)N2CCC(N3CCCCC3)CC2)cc1 | inconclusive [inhibitor, single point] | 
14 | CN(C(=O)Cn1cc(S(=O)(=O)Cc2ccccc2Cl)c2ccccc21)c1ccccc1 | active: 20.6 µM | 
15 | O=S(=O)(c1ccccc1)N1CCC[C@@]2(CCN(Cc3nccs3)C2)C1 | inconclusive [inhibitor, single point] | 
16 | Cc1cc(/C=C2\C(=N)N3N=CSC3=NC2=O)c(C)n1Cc1ccccc1 |  | inactive: -14.2%
17 | COc1ccc(-c2nn3c(-c4ccccc4C)nnc3c3ccccc23)cc1 | inconclusive [inhibitor, single point] | 
18 | Cc1cccc(NC(=O)Nc2nnc(N(C)Cc3ccccc3)s2)c1 | inconclusive [inhibitor, single point] | 
19 | CC(=O)c1ccc(NC(=O)c2sc(-n3nc(C)c(Cc4ccccc4)c3C)nc2C)cc1 | active: 16.4 µM | 
20 | CCCCNC(=O)c1ccccc1NC(=O)CCSc1ccccc1 | inconclusive [inhibitor, single point] | 
21 | Cc1ccc(Cl)cc1N1CCN(S(=O)(=O)c2ccc3c(c2)CC(C)N3C(=O)C2CCC2)CC1 (stereo not given) | inconclusive [inhibitor, partial curve] | 
22 | CCOCCCNc1ncnc2onc(C)c12 |  | inconclusive: -31.4% [inhibitor]
23 | Cc1ccc(N2CCN(S(=O)(=O)c3ccc(F)c(C)c3)CC2)c(C)c1 | inconclusive [inhibitor, single point] | 
24 | Cc1cc(Cl)c2ccccc2n1 |  | inactive: -10%

Row | SMILES | Potency | activity change, negative = growth inhibition
25 | CC(C)(C)c1ccc(N=C2SCC(=O)N2Cc2cccs2)cc1 | inconclusive [inhibitor, partial curve] | 
26 | NNC(=O)c1oc2ccccc2c1-n1cccc1 | inconclusive [inhibitor, partial curve] | 
27 | COC(=O)[C@@]1(Cc2ccc(F)cc2)[C@H]2c3cc(C(=O)N(C)C)n(Cc4ccc(C)c(F)c4F)c3C[C@H]2CN1C(=O)c1ccccc1 | inconclusive [inhibitor, single point] | 
28 | COc1cc(S(=O)(=O)N2CCN(C(=O)c3cccs3)CC2)ccc1NC(C)=O |  | inactive: 1.09%
29 | O=C1C=C(Nc2ccc(F)cc2)c2ccccc2C1=O | active: 9.2 µM | 
30 | Cn1c(=O)c2c(ncn2CC(=O)Nc2cccc(Cl)c2Cl)n(C)c1=O | inconclusive [inhibitor, single point] | 
31 | COc1ccc(C(N)c2nccc3cc(OC)c(OC)cc23)cc1OC (stereo not given) | inconclusive [inhibitor, partial curve] | 
32 | CCN(CC)C(=O)CSc1nc2cc(OC)c(OC)cc2c(=O)n1Cc1ccc(Cl)cc1 | active: 18.4 µM | 
33 | O=C(c1ccccc1F)N1N=C(C(F)(F)F)CC1(O)c1ccccc1 (stereo not given) | inconclusive [inhibitor, single point] | 
34 | COc1ccc(CC(=O)Nc2nc3ccc(F)cc3s2)cc1S(=O)(=O)N1CCOCC1 | inconclusive [inhibitor, single point] | 
35 | COc1cc(OC)cc(C(=O)N2CCN(Cc3ccccc3C(F)(F)F)CC2)c1 | inconclusive [inhibitor, single point] | 
36 | CCOC(=O)Cn1c(=NC(=O)c2ccc([N+](=O)[O-])s2)sc2ccccc21 | inconclusive [inhibitor, partial curve] | 
37 | CC(=O)N(Cc1ccccc1)Cc1nc2sc(C)c(C)c2c(=O)[nH]1 | active: 13 µM | 
38 | COC(=O)CN1C(=O)N/C(=C/c2ccc(OC)c(C)c2OC)C1=O |  | inactive: 0.0276%
39 | COc1cccc(Cn2c(CNC(=O)c3cc([N+](=O)[O-])ccc3Cl)nc3cccnc32)c1 | inconclusive [inhibitor, single point] | 
40 | CC(/C=N/NC(=O)Cn1cnc2ccccc21)=C\c1ccccc1 | inconclusive [inhibitor, partial curve] | 
41 | N#CC(C#N)=Cc1cccn1-c1ccc(S(N)(=O)=O)cc1 |  | inconclusive: -32.1% [inhibitor]
42 | O=C(Cc1c(F)cccc1Cl)Nc1ncc([N+](=O)[O-])s1 | inconclusive [inhibitor, single point] | 
43 | CCOc1ccc(S(=O)(=O)N2CCN(C(=O)c3oc4ccc(OC)cc4c3C)CC2)cc1 | inconclusive [inhibitor, single point] | 
44 | Cc1ccccc1C(=O)NC1(C(F)(F)F)C(=O)Nc2c1c(=O)[nH]c(=O)n2-c1ccc(F)cc1 (stereo not given) | inconclusive [inhibitor, single point] | 
45 | COc1cc(C2N=C(c3ccccc3)NO2)cc(Br)c1O (stereo not given) |  | inactive: -6.14%
46 | Cc1ccc(/C=N/Nc2ncc(Cl)cc2Cl)s1 | inconclusive [inhibitor, single point] | 
47 | COC(=O)/C(=C\C=C\c1ccccc1)NC(=O)c1ccccc1 | inconclusive [inhibitor, single point] | 
48 | CCOC(=O)CN1C(=O)N[C@@H](c2ccccc2)[C@H](C(C)=O)[C@H]1C |  | inactive: 17%

Row | SMILES | Potency | activity change, negative = growth inhibition
49 | Cc1noc(/C=C/c2cccs2)c1S(=O)(=O)N1CCC(C(=O)NCc2ccccc2Cl)CC1 |  | inactive: -28.4%
50 | CCN(Cc1ccccc1)Cc1c(O)ccc2c(=O)c(-c3ccc(Cl)cc3Cl)coc12 |  | inactive: 6.31%
51 | CSc1sc(C(=O)N(C)C)c2c1S(=O)(=O)N(C)c1ccccc1-2 |  | inactive: -18.6%
52 | COC(=O)c1oc2ccccc2c1NC(=O)c1ccccc1O | inconclusive [inhibitor, partial curve] | 
53 | NS(=O)(=O)c1ccc(NC(=O)/C=C/c2ccc3c(c2)OCO3)cc1 |  | inactive: -9.58%
54 | CN(C)/C=C(\C#N)c1nc2ccccc2[nH]1 | inconclusive [inhibitor, full curve] | 
55 | CC1CN(S(=O)(=O)c2cccc(C(=O)OC(C)C(=O)NC3CCCCC3C)c2)CC(C)O1 (stereo not given) |  | inactive: -23.4%
56 | CN1CCCC2(CCCN(Cc3nc(Cc4cccc(C(F)(F)F)c4)no3)C2)C1 (stereo not given) | inconclusive [inhibitor, single point] | 
57 | CCCOc1ccc(C(=O)Nc2ccc(S(=O)(=O)N3C[C@@H]4C[C@@H](C3)c3cccc(=O)n3C4)cc2)cc1 | active: 13 µM | 
58 | CC1(c2ccc(Cl)cc2)NC(=O)N(CC(=O)Nc2ccc(N3CCCCC3)cc2)C1=O (stereo not given) |  | inactive: -29.2%
59 | C=CCn1c2ccccc2c2nnc(SCCN3CCOCC3)nc21 | inconclusive [inhibitor, partial curve, poor fit] | 
60 | O=C(c1cccc(Cl)c1)N1CCCc2ccccc21 | inconclusive [inhibitor, full curve, poor fit] | 
61 | COc1ccc(NC2CCCN(C(=O)CCCn3cncn3)C2)cc1OC (stereo not given) |  | inactive: 6.91%
62 | COC(=O)C1(C(=O)OC)C[C@H](/C=C/c2ccccc2)N(Cc2ccccc2OC)[C@@H]1c1ccc(F)cc1 | inconclusive [inhibitor, single point] | 
63 | COc1ccccc1N1CCN(CC(=O)c2ccc3ccn(C(C)=O)c3c2)CC1 | inconclusive [inhibitor, single point] | 
64 | Cc1cccc(C(=O)N2CCc3c([nH]c4ccccc34)C2CC(C)C)n1 (stereo not given) |  | inactive: -16.7%
65 | COc1cccc(C(=O)Nc2ccccc2OC(F)(F)F)c1 |  | inactive: 7.74%
66 | O=C(CSc1nc2ccc(Cl)cc2[nH]1)Nc1ccc2c(c1)CCC2 | inconclusive [inhibitor, single point] | 
67 | CCOc1ccccc1NC(=O)c1ccc(F)c(S(=O)(=O)NCc2ccc3c(c2)OCO3)c1 | inconclusive [inhibitor, partial curve] | 
68 | CC(C)COC(=O)N(C)C[C@@H]1OCc2cnnn2CCCC(=O)N([C@H](C)CO)C[C@H]1C |  | inactive: 3.25%
69 | CS(=O)(=O)N(CC(=O)Nc1ccccc1Cl)c1ccc(Cl)cc1 |  | inactive: -24.7%
70 | CN(C)c1ccc(Sc2nnc(NC(=O)Nc3ccc(Cl)cc3Cl)s2)cc1 | inconclusive [inhibitor, single point] | 

From PubChem BioAssay AID686978 (National Center for Advancing Translational Sciences (NCATS), 2013)
